# No constants are given. Whether binding was seen depends on the method and setting. In cells and extracts the contact can be indirect. Some binding calls cover weakened binding; strength is not graded here.
# By UniProt entry, the sequences of proteins in these tests, tags left out. Where a name states a change or a piece, a line headed by the entry shows the natural chain unless it says otherwise.
# UniProt P11978: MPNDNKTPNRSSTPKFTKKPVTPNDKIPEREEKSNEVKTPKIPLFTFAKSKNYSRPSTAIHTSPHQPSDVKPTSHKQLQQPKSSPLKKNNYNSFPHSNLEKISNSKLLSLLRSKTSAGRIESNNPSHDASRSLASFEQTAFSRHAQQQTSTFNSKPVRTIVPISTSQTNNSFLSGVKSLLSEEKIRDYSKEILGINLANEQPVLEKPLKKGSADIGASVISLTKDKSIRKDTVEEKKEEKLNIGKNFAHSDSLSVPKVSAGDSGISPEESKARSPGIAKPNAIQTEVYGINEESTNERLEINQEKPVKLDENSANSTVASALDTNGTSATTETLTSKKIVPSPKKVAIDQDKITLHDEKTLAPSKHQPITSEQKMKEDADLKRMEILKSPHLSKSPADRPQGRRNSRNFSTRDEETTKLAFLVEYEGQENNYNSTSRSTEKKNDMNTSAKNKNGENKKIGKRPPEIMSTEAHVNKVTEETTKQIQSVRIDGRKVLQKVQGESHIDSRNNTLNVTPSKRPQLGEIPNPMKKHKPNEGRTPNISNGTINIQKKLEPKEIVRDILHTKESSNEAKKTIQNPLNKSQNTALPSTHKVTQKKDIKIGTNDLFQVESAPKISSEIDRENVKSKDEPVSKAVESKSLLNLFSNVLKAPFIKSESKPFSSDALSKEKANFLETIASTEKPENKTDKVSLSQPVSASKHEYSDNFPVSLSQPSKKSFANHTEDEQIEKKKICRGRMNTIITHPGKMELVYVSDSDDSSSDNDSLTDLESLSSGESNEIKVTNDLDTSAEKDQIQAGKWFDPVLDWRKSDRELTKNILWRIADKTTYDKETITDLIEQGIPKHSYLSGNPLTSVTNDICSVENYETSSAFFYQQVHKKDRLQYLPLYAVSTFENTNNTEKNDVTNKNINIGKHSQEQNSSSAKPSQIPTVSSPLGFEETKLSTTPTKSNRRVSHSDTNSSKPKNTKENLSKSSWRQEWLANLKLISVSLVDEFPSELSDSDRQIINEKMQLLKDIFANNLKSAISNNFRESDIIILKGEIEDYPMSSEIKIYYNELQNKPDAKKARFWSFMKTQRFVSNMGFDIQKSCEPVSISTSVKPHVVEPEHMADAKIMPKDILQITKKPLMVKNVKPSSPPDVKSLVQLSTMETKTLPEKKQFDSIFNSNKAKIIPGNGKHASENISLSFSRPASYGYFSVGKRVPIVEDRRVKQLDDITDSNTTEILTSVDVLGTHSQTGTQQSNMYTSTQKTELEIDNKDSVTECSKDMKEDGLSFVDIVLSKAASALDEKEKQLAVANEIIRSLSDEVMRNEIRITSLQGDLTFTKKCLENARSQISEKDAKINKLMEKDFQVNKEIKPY
# UniProt P06700: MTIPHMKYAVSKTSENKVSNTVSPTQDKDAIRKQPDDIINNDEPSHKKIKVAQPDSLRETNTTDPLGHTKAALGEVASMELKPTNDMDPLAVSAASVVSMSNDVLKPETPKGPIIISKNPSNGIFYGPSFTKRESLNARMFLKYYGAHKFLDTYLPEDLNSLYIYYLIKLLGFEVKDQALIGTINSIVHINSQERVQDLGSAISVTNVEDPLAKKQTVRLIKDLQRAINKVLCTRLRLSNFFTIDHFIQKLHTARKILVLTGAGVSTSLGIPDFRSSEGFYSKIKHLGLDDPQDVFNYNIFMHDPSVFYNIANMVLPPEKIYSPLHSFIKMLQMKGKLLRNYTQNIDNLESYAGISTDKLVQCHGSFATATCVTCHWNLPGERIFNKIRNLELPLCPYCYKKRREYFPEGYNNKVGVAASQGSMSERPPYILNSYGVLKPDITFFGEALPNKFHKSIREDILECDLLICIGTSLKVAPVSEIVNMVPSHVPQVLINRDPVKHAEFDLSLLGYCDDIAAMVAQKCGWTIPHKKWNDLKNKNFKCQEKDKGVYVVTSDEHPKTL
# UniProt P53685: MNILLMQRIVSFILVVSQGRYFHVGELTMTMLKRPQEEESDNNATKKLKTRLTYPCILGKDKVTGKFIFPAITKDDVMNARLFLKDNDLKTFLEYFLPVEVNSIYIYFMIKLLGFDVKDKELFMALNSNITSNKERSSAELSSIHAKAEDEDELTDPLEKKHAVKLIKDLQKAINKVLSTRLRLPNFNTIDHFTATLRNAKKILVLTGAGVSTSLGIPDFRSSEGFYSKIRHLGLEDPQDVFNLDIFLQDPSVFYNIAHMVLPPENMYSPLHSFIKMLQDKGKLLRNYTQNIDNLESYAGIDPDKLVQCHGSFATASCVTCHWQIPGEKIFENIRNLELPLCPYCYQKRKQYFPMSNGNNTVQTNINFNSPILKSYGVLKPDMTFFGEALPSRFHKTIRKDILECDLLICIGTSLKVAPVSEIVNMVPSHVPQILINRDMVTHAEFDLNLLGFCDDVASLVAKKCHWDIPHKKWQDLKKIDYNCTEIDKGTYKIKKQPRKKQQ
# How the values were obtained:
# [1] = biological target: Sir4p (S. cerevisiae) (UniProt P11978); assay: co-IP; Sir4p immunoprecipitated with rabbit anti-Sir4p serum and protein A agarose from whole-cell lysates of hst1Δ sir2Δ (LRY333) yeast with plasmids, 4 °C; blot with anti-HA
# [2] = biological target: T1, Sum1p (S. cerevisiae) (UniProt P46676); assay: co-IP; Sum1p immunoprecipitated with guinea pig anti-Sum1p serum and protein A agarose from yeast whole-cell lysates, 4 °C; blot with anti-HA; strains HST1-HA (LRY558), hst1Δ (LRY198) or hst1Δ sir2Δ (LRY333) with plasmids
# T1 sequence: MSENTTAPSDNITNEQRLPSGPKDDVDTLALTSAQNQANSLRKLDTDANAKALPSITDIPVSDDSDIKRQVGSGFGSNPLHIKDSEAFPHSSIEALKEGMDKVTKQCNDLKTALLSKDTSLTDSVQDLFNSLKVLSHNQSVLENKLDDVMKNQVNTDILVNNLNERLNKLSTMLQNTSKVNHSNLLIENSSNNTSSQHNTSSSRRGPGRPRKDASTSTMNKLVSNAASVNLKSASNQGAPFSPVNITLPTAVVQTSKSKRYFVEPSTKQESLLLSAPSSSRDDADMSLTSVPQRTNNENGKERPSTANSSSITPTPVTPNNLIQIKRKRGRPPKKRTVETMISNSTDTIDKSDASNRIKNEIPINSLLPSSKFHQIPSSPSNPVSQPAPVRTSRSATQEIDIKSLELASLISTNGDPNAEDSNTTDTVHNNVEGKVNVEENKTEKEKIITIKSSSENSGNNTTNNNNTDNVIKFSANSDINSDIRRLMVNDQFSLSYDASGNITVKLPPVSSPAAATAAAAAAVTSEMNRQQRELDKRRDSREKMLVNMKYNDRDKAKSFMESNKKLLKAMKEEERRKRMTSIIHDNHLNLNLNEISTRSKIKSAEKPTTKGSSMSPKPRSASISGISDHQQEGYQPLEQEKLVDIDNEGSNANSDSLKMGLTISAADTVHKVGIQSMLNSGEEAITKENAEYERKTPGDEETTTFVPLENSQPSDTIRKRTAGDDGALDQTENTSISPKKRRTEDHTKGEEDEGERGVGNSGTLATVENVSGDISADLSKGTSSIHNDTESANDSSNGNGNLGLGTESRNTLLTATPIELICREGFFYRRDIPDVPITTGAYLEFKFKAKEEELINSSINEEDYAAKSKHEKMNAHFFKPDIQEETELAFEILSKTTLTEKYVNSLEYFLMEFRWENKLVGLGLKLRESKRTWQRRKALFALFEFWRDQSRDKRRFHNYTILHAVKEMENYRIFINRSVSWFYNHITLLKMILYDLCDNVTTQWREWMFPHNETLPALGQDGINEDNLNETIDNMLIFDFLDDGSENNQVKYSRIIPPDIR
# [3] = biological target: T1, Sum1p (S. cerevisiae); assay: co-IP; as a1, but HA-Sir2p (pRO298) in the hst1-N291A strain (LRY1306) with inactive Hst1-N291Ap present
# [4] = biological target: T1, Sum1p (S. cerevisiae); assay: condition: only in wild-type yeast, with Hst1p present; co-IP; as a1, but HA-Sir2p (pRO298) in wild-type yeast (W3031-a) with endogenous Hst1p present
# [5] = biological target: T1, Sum1p (S. cerevisiae); assay: co-IP; as a1, but HA-Sir2p (pRO298) in wild-type yeast (W3031-a) with endogenous Hst1p present
binding [1],binding [2],Substance,other results
binds,binds,HA-Sir2_(1−255)-Hst1_(201−503)p (from UniProt P06700 1-255; P53685 201-503),
,,Hst1-N291Ap (from UniProt P53685 1-503) (enzyme),binding [3]: binds
,binds,Hst1p-HA (from UniProt P53685 1-503) (enzyme),
binds,binds,HA-Sir2p (from UniProt P06700 1-562) (enzyme),binding [4]: no binding
,,Hst1p (from UniProt P53685 1-503) (enzyme),binding [5]: binds
